Data published in publication PMC4336329 (PLoS ONE, 2015).
Screen size: about 310,000 compounds; about 2,200 (0.71%) showed an effect of 50% or more. Effects have a minus sign here. Some of the results follow.

What follows are compounds tested against human ether-à-go-go-related gene (hERG) potassium channel (human, UniProt Q12809) (assay: primary screen, population patch clamp on CHO cells stably expressing hERG).
Chain of human ether-à-go-go-related gene (hERG) potassium channel (Q12809 whole entry, looked up): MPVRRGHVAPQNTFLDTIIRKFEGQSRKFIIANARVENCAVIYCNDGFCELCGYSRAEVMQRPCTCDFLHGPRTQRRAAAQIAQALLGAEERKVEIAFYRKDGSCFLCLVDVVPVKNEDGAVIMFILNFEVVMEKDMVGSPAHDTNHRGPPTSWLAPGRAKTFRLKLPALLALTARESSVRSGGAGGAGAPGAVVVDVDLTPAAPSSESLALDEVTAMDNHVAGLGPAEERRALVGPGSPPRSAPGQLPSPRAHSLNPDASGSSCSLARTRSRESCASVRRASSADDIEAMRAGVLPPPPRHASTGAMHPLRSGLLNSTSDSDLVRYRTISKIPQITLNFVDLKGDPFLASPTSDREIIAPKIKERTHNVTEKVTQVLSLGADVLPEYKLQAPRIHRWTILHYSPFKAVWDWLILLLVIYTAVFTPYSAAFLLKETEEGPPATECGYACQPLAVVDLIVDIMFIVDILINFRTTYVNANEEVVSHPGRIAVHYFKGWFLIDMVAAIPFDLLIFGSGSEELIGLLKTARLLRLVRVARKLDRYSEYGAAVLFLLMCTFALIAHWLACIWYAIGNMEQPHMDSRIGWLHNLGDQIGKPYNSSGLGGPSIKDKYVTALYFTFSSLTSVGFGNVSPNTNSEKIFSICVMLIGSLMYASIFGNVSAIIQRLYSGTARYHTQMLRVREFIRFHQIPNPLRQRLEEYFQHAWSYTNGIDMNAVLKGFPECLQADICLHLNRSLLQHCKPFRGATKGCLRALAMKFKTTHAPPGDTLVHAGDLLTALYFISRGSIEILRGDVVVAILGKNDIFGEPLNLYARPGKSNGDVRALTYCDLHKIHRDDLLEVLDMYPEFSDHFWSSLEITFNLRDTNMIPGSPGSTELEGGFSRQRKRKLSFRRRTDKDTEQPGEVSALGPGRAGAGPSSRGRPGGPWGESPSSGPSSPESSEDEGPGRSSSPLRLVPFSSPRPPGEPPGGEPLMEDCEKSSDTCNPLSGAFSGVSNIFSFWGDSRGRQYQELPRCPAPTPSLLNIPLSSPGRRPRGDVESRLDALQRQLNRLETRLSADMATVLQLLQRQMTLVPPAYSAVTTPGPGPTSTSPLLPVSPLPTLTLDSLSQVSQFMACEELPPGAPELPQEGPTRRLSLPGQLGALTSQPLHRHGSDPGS

Row | Compound | hERG current change (%, negative = inhibition) at 1uM [%]
1 | COc1n[nH]c(C(=O)NCc2ccccc2)c1[N+](=O)[O-] | 5.38
2 | CC(C)(C)Nc1nc(C(N)=O)nc(N2CCOCC2)n1 | 0.837
3 | CCOC(=O)c1cnc(Nc2ccccc2)nc1C(F)(F)F | 10.6
4 | CC(=O)c1ccc(N2CCN(S(=O)(=O)c3csc(C(N)=O)c3)CC2)cc1 | -14.2
5 | Cc1cccc(NCc2nc3ccccc3n2Cc2ccccc2)c1 | 12
6 | O=C(OC1CCOC1=O)c1cc(-c2ccc(Cl)cc2)nc2ccccc12 (stereo not drawn) | 15
7 | O=C(NC1CCCCC1)[C@H](O)[C@@H](O)C(=O)NC1CCCCC1 | 11.1
8 | COCCCn1c(=O)cc(C)[nH]c1=S | 12.6
9 | O=C(Nc1ccc(NC(=S)NC(=O)c2cccs2)cc1)c1ccco1 | 22.5
10 | Cc1cc(C(=O)Nc2c(C)nn(Cc3ccc(Cl)cc3)c2C)no1 | -7.24
11 | COc1ccc(-n2c(=O)c3ccccc3n(CC(=O)c3ccccc3)c2=O)cc1OC | 3.96
12 | CCN1CCN(Cc2ccc(C(=O)Nc3ccc(C)c(NCc4cnc(NC(=O)OC)cn4)c3)cc2C(F)(F)F)CC1 | 7.56
13 | CC(c1ccccc1)N1C(=O)c2ccc(C(=O)Nc3ccccc3C(=O)O)cc2C1=O (stereo not drawn) | 10.5
14 | COc1cc(C(=O)NC2CC(C)(C)CC(C)(C)C2)ccc1OC1CCN(C(C)=O)CC1 | 12.2
15 | CSc1ccc(S(=O)(=O)NC2CCCCC2)cc1 | -11.8
16 | Cc1ccc(/C=N/n2c(COc3ccccc3)n[nH]c2=S)o1 | 10.5
17 | COc1ccccc1NCC(=O)N/N=C/c1c(O)ccc2ccccc12 | 9.84
18 | O=C(CSc1nnc(NC(=O)c2ccccc2F)s1)NC1CCCC1 | 16.2
19 | O=C(O)CSCC(=O)Nc1ccccc1SCCS(=O)(=O)c1ccc(Cl)cc1 | 10.6
20 | O=C(CSc1nnc(-c2ccco2)o1)NC1CCCCC1 | 19.6
21 | C=CCNC(=S)N/N=C/c1ccc(OCc2ccccc2)cc1 | 11.8
22 | COc1ccc(NP(=O)(Oc2ccccc2OC)Oc2ccccc2OC)cc1 | 8.46

Row | Compound | hERG current change (%, negative = inhibition) at 1uM [%]
23 | O=C(CN1CCN(c2ccccn2)CC1)Nc1ccccc1F | 3.67
24 | O=C(CCCN1C(=O)C(c2ccccc2)Oc2cccnc21)Nc1ccccc1Cl (stereo not drawn) | 19.2
25 | CSCC[C@H](NC(=O)OC(C)(C)C)C(=O)N1CCC(C(=O)N[C@@H](C)C(=O)NCc2ccc(F)cc2)CC1 | 4.14
26 | COc1ccc(NC(=O)CCNC(=O)Cn2cnc3sc4c(c3c2=O)CCCC4)c(OC)c1 | 12.6
27 | Cc1ccc(NS(=O)(=O)c2ccc3c(c2)NC(=O)CCS3)c(C)c1 | 8.87
28 | COc1ccc(S(=O)(=O)n2nc(OC(=O)C3CCCCC3)cc2N)cc1 | 9.89
29 | Cc1nn(-c2ccccc2)c(Cl)c1C(=O)NCCN(C)C | 16.2
30 | Cc1cccc(NC(=O)c2cccc(OC(=S)N3CCOCC3)c2)c1 | 3.19
31 | Cc1ccccc1CNC(=O)C1CCC(=O)N(CC2CCCCC2)C1 (stereo not drawn) | 8.58
32 | COc1ccc(NCC(=O)N/N=C2\CCc3ccccc32)cc1 | 4.02
33 | Cc1ccc(C2(C)NC(=O)N(CC(=O)c3ccc(Cl)s3)C2=O)cc1 (stereo not drawn) | 7.69
34 | Cc1cccc(N2CCN(C(=O)/C=C/c3ccco3)CC2)c1C | 5.29
35 | Nc1cc(N2CCCCCC2)c2nonc2c1[N+](=O)[O-] | 11
36 | CC1CCCC(C)N1C(=O)CSc1nc(N)c(-c2ccccc2)c(=O)[nH]1 (stereo not drawn) | 7.78
37 | O=C(O)CCCN1C(=O)C2C3CC(C2C1=O)C1C(c2ccccc2)c2sc(=O)n(-c4ccccc4)c2SC31 (stereo not drawn) | 14.7
38 | Cc1ccccc1C(=O)NC(=S)Nc1ccc(S(=O)(=O)N(C)c2ccccc2)cc1 | 9.49
39 | O=S(=O)(Cc1ccccc1)N1CCCc2ccccc21 | -1.53
40 | CCNC(=S)NNC(=O)C1CCN(Cc2ccccc2)CC1 | 6.22
41 | Cc1ccsc1C(=O)NNC(=O)C1C2C=CC(C2)C1C(=O)O (stereo not drawn) | 2.82
42 | Cc1c(CCC(=O)NCCCn2ccnc2)c(=O)oc2c(C)c3oc4c(c3cc12)CCCC4 | 2.02
43 | CC1CCCCC1NC(=O)COC(=O)CCC(=O)c1cccs1 (stereo not drawn) | 12.1
44 | CCCN(CC1CC1)C(=S)Nc1ccc(C(C)=O)cc1 | -0.0968

Row | Compound | hERG current change (%, negative = inhibition) at 1uM [%]
45 | COc1ccccc1CCC(=O)N(CCC1=CCCCC1)c1c(N)n(Cc2ccccc2)c(=O)[nH]c1=O | 13
46 | COc1ccc(-c2cc(-c3ccc(OC)c(OC)c3)n[nH]2)c(O)c1 | 2.35
47 | CO.Cc1ccc(C2=NCN(c3ccc(C(=O)O)cc3)C(=S)N2)cc1 | 9.74
48 | CCCN(C(=O)CCNC(=O)Cn1cnc2ccccc2c1=O)c1cccc(C)c1 | 15.3
49 | O=C(Cc1ccccc1)N1CCN(Cc2cccnc2)CC1.O=C(O)C(=O)O | 9.07
50 | Cc1cccc2sc(NC(=O)CSc3nc4ccccc4o3)nc12 | -0.695
51 | CC1(C)Oc2ccc3ccc(=O)oc3c2C[C@H]1O | 9.62
52 | O=C(CCn1ccnc1)Nc1ccc2ccccc2c1 | 8.61
53 | O=C(OCC(=O)N1CCN(C(=O)c2ccco2)CC1)C1=COCCO1 | 29.5
54 | Cc1cc(C)c2nc(/N=C(\N)NC(=O)c3ccccc3)nc(C)c2c1 | 0.931
55 | CC(C)Cn1c(SCC#N)nc2ccccc2c1=O | 11.6
56 | CCC(=O)c1coc2ccc(O)cc12 | 5.33
57 | CC(C)C(c1nnnn1C(C)(C)C)N1CCOCC1 (stereo not drawn) | 4.7
58 | COc1ccc(Cc2nnc(NC(=O)Nc3ccc(F)cc3)s2)cc1 | 16
59 | COC(=O)[C@]12OC[C@]34C([C@@H](O)[C@@H]1O)[C@]1(C)CC(=O)C(O)=C(C)[C@@H]1C[C@H]3OC(=O)[C@H](O)[C@@H]24 (stereo partly drawn) | 15.9
60 | Cc1ccc(N2CC(NS(=O)(=O)c3cc(F)ccc3F)CC2=O)cc1C (stereo not drawn) | 13.6
61 | COc1ccc(/C(C)=N/Nc2ccc(C(=O)O)cc2)cc1OC.O=S(=O)(O)O | 11.7
62 | C=CCN1C(=O)CS/C1=N\S(=O)(=O)c1ccc(Cl)cc1 | 9.7
63 | CC(=O)Nc1ccc(NC(=O)c2ccc(COc3ccc4c(C)cc(=O)oc4c3)cc2)cc1 | 0.856
64 | O=C(CNC(=O)c1cccs1)c1ccc(Br)cc1 | 20.6
65 | CC(=O)c1c(COC(=O)c2ccccc2Cl)nc2ccccc2[n+]1[O-] | 6.61
66 | O=C(Nc1cccc(Cl)c1Cl)C1CCN(c2ncccn2)CC1 | 19.4

Row | Compound | hERG current change (%, negative = inhibition) at 1uM [%]
67 | COc1ccc(NC(=O)C2CCCN(S(=O)(=O)c3cccs3)C2)cc1OC (stereo not drawn) | 14.3
68 | O=C(Nc1cccc2cccnc12)c1cccc(Cl)c1 | 14.7
69 | C[C@H]1CC[C@@]2(C)[C@@H](CC[C@@H]3[C@@H]2CC[C@]2(C)[C@@H](O)CC[C@@H]32)C1 | 10.2
70 | N#C/C(C(=O)N1CCOCC1)=c1/s/c(=C\c2ccccn2)c(=O)n1-c1ccccc1 | 12.8
71 | CCn1cc(/C=N\NC(=O)Cc2ccc(Cl)cc2)cn1 | -5.5
72 | CC(C)CC(=O)Nc1ccnn1C1CCN(C(=O)c2ccccc2F)CC1 | 16.7
73 | COc1ccc(-c2nc(CSCC(=O)NCc3ccc4c(c3)OCO4)c(C)o2)cc1 | 6.6
74 | COc1ccc(CCNC(=O)COC(=O)/C=C/c2cc(OC)c(OC)c(OC)c2)cc1OC | 13.5
75 | COc1ccc(N2CCN(C(=O)CSc3nnc(-c4ccc5[nH]c(C)c(C)c5c4)o3)CC2)cc1 | 13
76 | CCOc1ccc(S(=O)(=O)N2CCCCC2)cc1NC(=O)C1CCC1 | 5.47
77 | O=c1c2ccccc2c(-c2ccccc2)nn1-c1ccc(Cl)c(Cl)c1 | 18
78 | Cc1nn(C)c(C)c1S(=O)(=O)N(CC(=O)NCCN1CCOCC1)c1ccc(C(C)C)cc1 | 2.09
79 | COc1ccccc1CNC(=O)C1(C)Oc2cccnc2NC1=O (stereo not drawn) | 6.96
80 | COc1ccc(C2=NN(CCC(=O)NC3CCCCCC3)C(=O)CC2)cc1 | 14.3
81 | Cl.NC(CC(=O)OC1CCCCC1)C(=O)OC1CCCCC1 (stereo not drawn) | -5.16
82 | COc1ccc(C(c2nnnn2C2CCCC2)N2CCC(C)CC2)c(OC)c1 (stereo not drawn) | 3.37
83 | CCOc1ccc(S(=O)(=O)NCc2ccc(OC)cc2)c2cccnc12 | -3.22
84 | COc1ccccc1CNC(=O)C1CCC(CNc2c(N3CCCCC3)c(=O)c2=O)CC1 (stereo not drawn) | 5.75
85 | Cc1cc(C)c(S(=O)(=O)NCC2CCC(C(=O)NCc3ccc4c(c3)OCO4)CC2)c(C)c1 (stereo not drawn) | 4.26
86 | O=C(/C=C/c1ccc(Cl)cc1)NC(=S)N1C[C@H]2C[C@H](C1)c1cccc(=O)n1C2 | -25.5
87 | COc1ccc(CN2CC(=O)N(c3ccccc3C)C2=S)cc1OC | 23.9
